Source: patent US12559574B2 (National Health Research Institutes, priority 2019, dated 2026)

B1: VH3+VL3: humanized 6G10F6 antibody, VH3 SEQ ID NO: 11, VL3 SEQ ID NO: 16 (antibody)
heavy: MGWSCIILFLVATATGVHSQVQLQESGPGLVKPSQTLSLTCTVSGYSITSDYAWNWFRQPPGKKLEWMGYTSYSGSTSYNPSLKSRVTISRDTSKNQISLKLSSVTAADTATYYCAREVTTFGYFDYWGQGTLVTVSSASTKGPSVFPLAPCSRSTSESTAALGCLVKDYFPEPVTVSWNSGALTSGVHTFPAVLQSSGLYSLSSVVTVPSSSLGTKTYTCNVDHKPSNTKVDKRV[letters of human IgG4 Fc left out]
light: MGWSCIILFLVATATGVHSQTVVTQEPSLTVSPGGTVTLTCRSSTGAVTTSNYANWFQQKPGQAPRGLIGGTSNRAPGVPARFSGSLLGDKAALTLSGVQPEDEAEYFCALWYSTHYVFGTGTKVTVLGQPKAAPSVTLFPPSSEELQANKATLVCLISDFYPGAVTVAWKADSSPVKAGVETTTPSKQSNNKYAASSYLSLTPEQWKSHRSYSCQVTHEGSTVEKTVAPTECS
modifications: VH3 of the humanized 6G10F6 antibody; VL3 of the humanized 6G10F6 antibody
B2: VH4+VL2: humanized 6G10F6 antibody, VH4 SEQ ID NO: 12, VL2 SEQ ID NO: 15 (antibody)
heavy: B1 heavy with R91V, I98F, T112V
light: B1 light with G78W, V79T, D90G
modifications: VH4 of the humanized 6G10F6 antibody; VL2 of the humanized 6G10F6 antibody
B3: VH4+VL3: humanized 6G10F6 antibody, VH4 SEQ ID NO: 12, VL3 SEQ ID NO: 16 (antibody)
heavy: B1 heavy with R91V, I98F, T112V
light: B1 light
modifications: VH4 of the humanized 6G10F6 antibody; VL3 of the humanized 6G10F6 antibody

Key:
[1] = molecular target: BSA-Succinic acid (Bos taurus, UniProt P02769); test: SPR (Biacore 8K) affinity measurement; assay type: binding; conditions: purified IgG, 1:1 interaction model
Method: To construct and produce the chimeric 6G10F6 antibody and humanized antibody, the DNA sequences encoding humanized IgG heavy and light chains are synthesized and inserted into pCDNA3.4 vector to construct the expression plasmids of full-length IgGs (as shown in FIG. 11). Forty humanized antibodies are expressed in HEK293 cell culture, and then the cells are spun down. The supernatants are conducted for expression evaluation by ELISA. Binding confirmation and affinity ranking are tested by Surface Plasmon Resonance (SPR) using Biacore 8K. […] And the primary antibodies are goat anti-human IgG-HRP (GenScript, Cat. No. A00166) and goat anti-human Lambda-HRP (SouthernBiotech, Cat. No. 2070-05) respectively. The affinity and kinetics of chimeric antibody to BSA-Succinic acid is summarized in FIG. 12B, and the sensor-grams are shown in FIG. 12C. Express antibodies plus the parental antibody are performed for affinity ranking. The clones without binding with the target are highlight in grey color.
Based on the affinity ranking results, top 3 humanized antibodies (VH3+VL3, VH4+VL2, VH4+VL3) are expressed and purified according to GenScript's SOP. Evaluating from the SDS-PAGE, the purity of humanized IgGs are about 85% (FIG. 14A). The top 3 purified antibodies are further selected for affinity measurement under different concentrations. Binding data of each antibody is processed and fitted to 1:1 interaction model using Biacore 8K evaluation software. All experimental data could be well fitted to the model (FIG. 15A).

[2] = thermo-stability evaluation by ELISA; assay type: physicochemical; conditions: −80° C., 4° C., 25° C., 40° C., 2 months
Method: All antibodies are treated for one month up to two months at −80° C., 4° C., 25° C., and 40° C.
In addition, four purified antibodies (including chimeric antibody, VH3+VL3, VH4+VL2, VH4+VL3 humanilized antibodies) and nine supernatants form HEK293 cells expressing each humanized were selected for stability evaluation by ELISA.

Chain of BSA-Succinic acid (P02769 25-607): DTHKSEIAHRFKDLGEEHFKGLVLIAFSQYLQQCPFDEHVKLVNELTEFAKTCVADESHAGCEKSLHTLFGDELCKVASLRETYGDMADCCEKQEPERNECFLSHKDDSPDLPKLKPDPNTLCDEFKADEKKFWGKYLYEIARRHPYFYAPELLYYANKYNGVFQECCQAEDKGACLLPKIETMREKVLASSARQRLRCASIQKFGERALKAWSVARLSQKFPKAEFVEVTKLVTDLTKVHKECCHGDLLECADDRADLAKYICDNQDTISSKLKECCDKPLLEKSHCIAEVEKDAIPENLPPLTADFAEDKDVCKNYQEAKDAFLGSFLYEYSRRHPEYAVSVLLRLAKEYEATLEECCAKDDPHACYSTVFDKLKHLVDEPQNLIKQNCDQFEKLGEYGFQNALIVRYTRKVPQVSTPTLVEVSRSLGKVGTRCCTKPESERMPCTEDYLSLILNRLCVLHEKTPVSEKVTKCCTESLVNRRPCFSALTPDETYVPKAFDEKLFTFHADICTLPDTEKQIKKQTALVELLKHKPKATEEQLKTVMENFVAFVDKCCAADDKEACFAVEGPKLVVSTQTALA

| Molecule | antigen-binding affinities [1] | binding to antigen after temperature treatments [2] |
| --- | --- | --- |
| B1 | retain comparable antigen-binding affinities to the parent chimeric antibody | bound to antigen strongly |
| B2 | retain comparable antigen-binding affinities to the parent chimeric antibody | bound to antigen strongly |
| B3 | retain comparable antigen-binding affinities to the parent chimeric antibody | bound to antigen strongly |

Substitutions are numbered along the chain they refer to.
